The list shows a part of the results. Many values rest on one well or one pass, so single values are uncertain.
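Note: cells treated in 1,536-well plates, then fixed and DAPI-stained, with nuclei counted from automated high-throughput microscope images.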

This assay relates to MeWo. Nature of the assay: cell count relative to DMSO control; melanoma cells; higher = more viable cells. The settings on record: library dose: standard library concentration; 72 h.
With `CC(=O)O[C@@]12CO[C@@H]1C[C@H](O)[C@@]1(C)C(=O)[C@H](O)C3=C(C)[C@@H](OC(=O)[C@H](O)[C@@H](NC(=O)OC(C)(C)C)c4ccccc4)C[C@@](O)([C@@H](OC(=O)c4ccccc4)[C@H]21)C3(C)C` [Docetaxel] + CC1(C)NC(=O)N(c2ccc([N+](=O)[O-])c(C(F)(F)F)c2)C1=O [nilutamide] (first compound 0.0005 µM, partner dose 5 µM), the cell count worked out at 23.9%.
With `CC(=O)c1c(C)c2cnc(Nc3ccc(N4CCNCC4)cn3)nc2n(C2CCCC2)c1=O` [palbociclib] + NCC(=O)Nc1ccc(-n2nc(C(F)(F)F)cc2-c2ccc3c(ccc4ccccc43)c2)cc1 [OSU03012] (first compound 0.2 µM, partner dose 5 µM), the cell count stood at 55.8%.
The figure for `Nc1nc(F)nc2c1ncn2[C@@H]1O[C@H](CO)[C@@H](O)[C@@H]1O` [fludarabine] + Nc1cccc2c1CN(C1CCC(=O)NC1=O)C2=O [lenalidomide] (first compound 1 µM, partner dose 5 µM) is 81.7%; for `CC(=O)O[C@@]12CO[C@@H]1C[C@H](O)[C@@]1(C)C(=O)[C@H](O)C3=C(C)[C@@H](OC(=O)[C@H](O)[C@@H](NC(=O)OC(C)(C)C)c4ccccc4)C[C@@](O)([C@@H](OC(=O)c4ccccc4)[C@H]21)C3(C)C` [Docetaxel] + Oc1cc(-c2nc(-c3ccccc3)[nH]c2-c2ccncc2)ccc1Cl [L779450] (first compound 0.0005 µM, partner dose 1 µM) it is 24.7%.
The same measure for `Nc1ncn([C@H]2C[C@H](O)[C@@H](CO)O2)c(=O)n1` [decitabine] + CC1(C)NC(=O)N(c2ccc([N+](=O)[O-])c(C(F)(F)F)c2)C1=O [nilutamide] (first compound 0.5 µM, partner dose 5 µM): 73%; for `CC(=O)O[C@@]12CO[C@@H]1C[C@H](O)[C@@]1(C)C(=O)[C@H](O)C3=C(C)[C@@H](OC(=O)[C@H](O)[C@@H](NC(=O)OC(C)(C)C)c4ccccc4)C[C@@](O)([C@@H](OC(=O)c4ccccc4)[C@H]21)C3(C)C` [Docetaxel] + CN(NC(=O)CC(=O)NN(C)C(=S)c1ccccc1)C(=S)c1ccccc1 [STA4783] (first compound 0.0005 µM, partner dose 0.03 µM): 15.1%; for `CC(=O)O[C@@]12CO[C@@H]1C[C@H](O)[C@@]1(C)C(=O)[C@H](O)C3=C(C)[C@@H](OC(=O)[C@H](O)[C@@H](NC(=O)OC(C)(C)C)c4ccccc4)C[C@@](O)([C@@H](OC(=O)c4ccccc4)[C@H]21)C3(C)C` [Docetaxel] + O=C(O)[C@@H]1[O][Sb](=[O])([O][Sb]2(=[O])[O][C@H]([C@H](O)CO)[C@H](O)[C@H](C(=O)O)[O]2)[O][C@H]([C@H](O)CO)[C@@H]1O [stibogluconate] (first compound 0.0005 µM, partner dose 10 µM): 24.9%.
The same measure for `Nc1ccn([C@@H]2O[C@H](CO)[C@@H](O)C2(F)F)c(=O)n1` [gemcitabine] + O=C(O)C(=O)Nc1sc2c(c1C(=O)O)CCNC2 [TCS401] (first compound 0.002 µM, partner dose 8.33333 µM): 44.4%; for `CC(=O)O[C@@]12CO[C@@H]1C[C@H](O)[C@@]1(C)C(=O)[C@H](O)C3=C(C)[C@@H](OC(=O)[C@H](O)[C@@H](NC(=O)OC(C)(C)C)c4ccccc4)C[C@@](O)([C@@H](OC(=O)c4ccccc4)[C@H]21)C3(C)C` [Docetaxel] + C[C@]1(c2nc3c(C(N)=O)cccc3[nH]2)CCCN1 [Veliparib] (first compound 0.0005 µM, partner dose 7 µM): 19.4%.
In turn, `CC(=O)c1c(C)c2cnc(Nc3ccc(N4CCNCC4)cn3)nc2n(C2CCCC2)c1=O` [palbociclib] + N#Cc1c(O)c2c(-c3ccc(-c4ccccc4O)cc3)csc2[nH]c1=O [A769662] (first compound 0.2 µM, partner dose 10 µM) came in with a cell count of 54.4%.
The figure for `Nc1ccn([C@@H]2O[C@H](CO)[C@@H](O)C2(F)F)c(=O)n1` [gemcitabine] + C=CCNC1=C2C[C@@H](C)C[C@H](OC)[C@H](O)[C@@H](C)/C=C(\C)[C@H](OC(N)=O)[C@@H](OC)/C=C\C=C(/C)C(=O)NC(=CC1=O)C2=O [Tanespimycin] (first compound 0.002 µM, partner dose 0.01 µM) is 33.6%.
The same measure for `CC(=O)c1c(C)c2cnc(Nc3ccc(N4CCNCC4)cn3)nc2n(C2CCCC2)c1=O` [palbociclib] + O=C(Nc1cccc(Cl)c1)Nc1ncc(CCNc2ncnc3ccsc23)s1 [SNS314] (first compound 0.2 µM, partner dose 0.004 µM): 46%; for `CC(=O)O[C@@]12CO[C@@H]1C[C@H](O)[C@@]1(C)C(=O)[C@H](O)C3=C(C)[C@@H](OC(=O)[C@H](O)[C@@H](NC(=O)OC(C)(C)C)c4ccccc4)C[C@@](O)([C@@H](OC(=O)c4ccccc4)[C@H]21)C3(C)C` [Docetaxel] + c1cc(-c2cnn3cc(-c4ccc(OCCN5CCCCC5)cc4)cnc23)ccn1 [Dorsomorphin] (first compound 0.0005 µM, partner dose 2 µM): 29%; for `Nc1ncn([C@H]2C[C@H](O)[C@@H](CO)O2)c(=O)n1` [decitabine] + COC(=O)c1sccc1S(=O)(=O)Nc1ccc(Nc2ccccc2)cc1OC [GSK0660] (first compound 0.5 µM, partner dose 5 µM): 71%.
The figure for `CO[C@H]1C[C@@H]2CC[C@@H](C)[C@@](O)(O2)C(=O)C(=O)N2CCCC[C@H]2C(=O)O[C@H]([C@H](C)C[C@@H]2CC[C@@H](OCCO)[C@H](OC)C2)CC(=O)[C@H](C)/C=C(\C)[C@@H](O)[C@@H](OC)C(=O)[C@H](C)C[C@H](C)/C=C/C=C/C=C/1C` [everolimus] + Clc1ccc(Nc2nnc(Cc3ccncc3)c3ccccc23)cc1 [vatalanib] (first compound 0.1 µM, partner dose 10 µM) is 43.8%; for `Nc1ccn([C@@H]2O[C@H](CO)[C@@H](O)C2(F)F)c(=O)n1` [gemcitabine] + OCc1c[nH]c2ccccc12 [Indole-3-carbinol] (first compound 0.002 µM, partner dose 4 µM) it is 32.8%; for `Nc1ncn([C@H]2C[C@H](O)[C@@H](CO)O2)c(=O)n1` [decitabine] + O=C(Nc1ccccc1)c1cc([N+](=O)[O-])ccc1Cl [GW9662] (first compound 0.5 µM, partner dose 10 µM) it is 53.2%.
Compound `Nc1ccn([C@@H]2O[C@H](CO)[C@@H](O)C2(F)F)c(=O)n1` [gemcitabine] + NC(=O)Nc1cc(-c2cccc(F)c2)sc1C(=O)N[C@H]1CCCNC1 [AZD7762] (first compound 0.002 µM, partner dose 0.1 µM) registered a cell count of 18.7%.
The figure for `Nc1nc(F)nc2c1ncn2[C@@H]1O[C@H](CO)[C@@H](O)[C@@H]1O` [fludarabine] + O=c1cc(-c2cccc3c2Sc2ccccc2S3)oc(N2CCOCC2)c1 [KU55933] (first compound 1 µM, partner dose 5 µM) is 101%; for `CC(=O)O[C@@]12CO[C@@H]1C[C@H](O)[C@@]1(C)C(=O)[C@H](O)C3=C(C)[C@@H](OC(=O)[C@H](O)[C@@H](NC(=O)OC(C)(C)C)c4ccccc4)C[C@@](O)([C@@H](OC(=O)c4ccccc4)[C@H]21)C3(C)C` [Docetaxel] + CO[C@H]1C[C@@H]2CC[C@@H](C)[C@@](O)(O2)C(=O)C(=O)N2CCCC[C@H]2C(=O)O[C@H]([C@H](C)C[C@@H]2CC[C@@H](OCCO)[C@H](OC)C2)CC(=O)[C@H](C)/C=C(\C)[C@@H](O)[C@@H](OC)C(=O)[C@H](C)C[C@H](C)/C=C/C=C/C=C/1C [everolimus] (first compound 0.0005 µM, partner dose 0.1 µM) it is 26.7%.
The same measure for `CC(=O)O[C@@]12CO[C@@H]1C[C@H](O)[C@@]1(C)C(=O)[C@H](O)C3=C(C)[C@@H](OC(=O)[C@H](O)[C@@H](NC(=O)OC(C)(C)C)c4ccccc4)C[C@@](O)([C@@H](OC(=O)c4ccccc4)[C@H]21)C3(C)C` [Docetaxel] + O=C(CCCCCCC(=O)Nc1ccccc1)NO [vorinostat] (first compound 0.0005 µM, partner dose 0.4 µM): 30.7%; for `Nc1ccn([C@@H]2O[C@H](CO)[C@@H](O)C2(F)F)c(=O)n1` [gemcitabine] + c1cc(-c2cnn3cc(-c4ccc(OCCN5CCCCC5)cc4)cnc23)ccn1 [Dorsomorphin] (first compound 0.002 µM, partner dose 2 µM): 35.3%.

The record behind these values is the supplement of paper PMC4604168 (melanoma cell lines).
